In PubChem BioAssay (NCI):
Several values for one entry are separate records, joined by “and”; a condition that tells them apart may be missing. Identical values can stand only once.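 Five concentrations, 48 hours, 96-well plates. GI50 marks 50% less growth. TGI: concentration producing complete growth inhibition.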

Tested on: NCI-H322M lung
Experiment: NCI tumour cell line growth inhibition, 48 h

Row | Structure (SMILES) | GI50 | TGI
1 | Cc1c2cnccc2c(C)c2c1c1cc(C3OCCCO3)ccc1n2C | 0.35 µM | 2.64 µM
2 | O=[N+]([O-])c1ccc(Nc2ccccc2-c2ccccc2)c2nonc12 | 19.2 µM | > 85.5 µM
3 | CCC(C)[C@H](NC(=O)[C@H](Cc1ccccc1)NC(=O)N(CC)c1ccccc1)C(=O)N[C@@H](CC(C)C)C(=O)OC (stereo partly drawn) |  | > 100 µM
4 | CCC(C)CN1C(=O)NC(C)(Cc2ccccc2)C1=O (stereo not drawn) |  | > 100 µM
5 | CNC(=O)c1ccccc1-[s+]1c2ccccc2c(=O)n1C (stereo not drawn) |  | > 100 µM
6 | O=[As](O)(O)c1ccc(NCc2ccccc2)cc1 |  | > 100 µM
7 | C1OCC2S[C@@H]3COCO[C@@H]3C2O1 (stereo partly drawn) |  | > 100 µM
8 | Nc1nc(N)c2ncn(CC3CCC(CO)C3)c2n1 (stereo not drawn) |  | > 100 µM
9 | Nc1nc(CCC(=O)Nc2cccc(C(F)(F)F)c2)cc(-c2cccc3ccccc23)n1 |  | > 100 µM
10 | CCOc1cc2c(cc1O)/C(=N\N)C[C@@H]1[C@@H]2CC[C@]2(C)[C@@H](O)CC[C@@H]12 |  | > 100 µM
11 | c1ccc(SC2(Sc3ccccc3)CCCC2)cc1 |  | > 100 µM
12 | C=CCNC(=S)Nc1sc2c(c1C(=O)OCC)CC(C)CC2 (stereo not drawn) |  | 56.5 µM
13 | COc1ccc(-c2nc(N)c(C#N)c3c2CCS(=O)(=O)c2ccc(C)cc2-3)cc1OC |  | 96.4 µM
14 | COc1cc2c(cc1OC)C13CCN4C=C5CCOC6CC(=O)N2C1C6C5CC43 (stereo not drawn) |  | > 100 µM
15 | CC12CC3C(CC1SCC(=O)O2)C3(C)C (stereo not drawn) |  | > 100 µM
16 | CN(C)c1nc2sc3c(c2c(=O)o1)CCCC3 |  | > 100 µM
17 | Clc1ccc2c(SCC3CO3)c3ccccc3nc2c1 (stereo not drawn) |  | 19.7 µM
18 | FC(F)(F)c1ccc(-c2nc(-c3nc4cc(Cl)c(Cl)cc4[nH]3)c3ccccn23)cc1 | 9.45 µM | > 100 µM
19 | N#C/C(=C\c1ccccc1O)C(N)=O |  | > 100 µM
20 | C/C=C/[C@@]1(OC(=O)c2ccccc2)C[C@@H]2CCCC[C@@H]21 |  | 33.2 µM
21 | Cc1ccc(C)c(NC(=O)C(=O)CC(=O)C2CCOC2=O)c1 (stereo not drawn) |  | > 100 µM
22 | O=C1OC(=O)c2c1c(-c1ccccc1)cn2-c1ccc(Cl)cc1 |  | > 100 µM
23 | CN(C)CCCOc1ccccc1NC1=C(Cl)C(=O)C(Nc2ccccc2OCCCN(C)C)=C(Cl)C1=O | 0.711 µM | 1.97 µM
24 | O=C(Nc1c(O)[nH]c(=S)[nH]c1=O)c1ccccn1 |  | > 100 µM
25 | CCC(C)[C@@H](NCc1ccccc1)[C@H](OCc1ccccc1)[C@@H]1COC(C)(C)O1 (stereo partly drawn) |  | 67 µM
26 | O=C1C(N2CCCC2)=CC(=O)c2c(O)c(N3CCCC3)c(Cl)c(O)c21 |  | > 10 µM

Row | Structure (SMILES) | GI50 | TGI
27 | COc1ccc(/C(=N/NC(N)=O)C2(O)C(=O)Nc3ccc([N+](=O)[O-])cc32)cc1 (stereo not drawn) |  | > 100 µM
28 | CNC(=O)c1cc(COc2nnc(Nc3ccc(Cl)cc3)c3ccoc23)ccn1 | 8 µM and > 10 µM | 32.8 µM and > 10 µM
29 | O=C(c1ccccc1)c1c(NCC(O)CN2CCCC2)n(Cc2ccccc2)c(=O)n(Cc2ccccc2)c1=O (stereo not drawn) | 20 µM | 42.1 µM
30 | CC(=O)NC1C(OCc2ccccc2)OC(CO)C(O)C1OCC(=O)NC(C)C(=O)NC(CCC(=O)NCCCCNc1ccc([N+](=O)[O-])c2[nH]c3ccccc3c(=O)c12)C(N)=O (stereo not drawn) |  | > 100 µM
31 | C=C(CNC(=O)Nc1ccc(-c2ccccc2)cc1)c1ccc(C(=O)Nc2ccccc2N)cc1 | > 100 µM | > 100 µM
32 | C=C(C)C(=O)CC[C@@H](C)[C@H]1[C@@H](OC2OC(CO)C(O)C(O)C2O)C[C@@]2(C)[C@@H]3C[C@H](O)C4C(C)(C)[C@@H](OC5OC(CO)C(O)C(O)C5O)CC[C@@]45C[C@@]35CC[C@]12C (stereo partly drawn) |  | > 100 µM
33 | Cc1cccc(C(=O)c2cccc3ccccc23)c1C(=O)O |  | > 100 µM
34 | C=C1C(=O)OC2/C=C(\C)C(OC(C)=O)C3OC3C(C)(O)CC(OC(=O)/C(C)=C/C)C12 (stereo not drawn) |  | 32.1 µM
35 | CN(C)CC(/C(Cc1ccccc1)=N\NC(=O)C[n+]1ccccc1)c1ccccc1 (stereo not drawn) |  | > 100 µM
36 | O=C(O)CCCl |  | > 5000 µM
37 | Cc1c2cc[nH]c(=O)c2c(C)c2c1[nH]c1cc(OCCN3CCN(C)CC3)ccc12 | 0.713 µM | 9.9 µM
38 | CCC[CH2][Sn]([CH2]CCC)([O]C(=O)c1c(F)cccc1F)[O]C(=O)c1c(F)cccc1F | 1.57 µM | 2.91 µM
39 | COc1cc(-c2nn3c(/C=C4/C(=O)Nc5ccccc54)c(-c4ccc(C)cc4)nc3s2)cc(OC)c1OC | 10.3 µM | > 100 µM
40 | COc1ccc(-c2[nH]ncc2-c2cc3c(c(OC)c2)OCC(=O)N3)cc1 | 3.09 µM | > 100 µM
41 | O=C(c1ccccc1)c1ccc2c(c1)nc1n2C(c2c(Cl)cccc2Cl)SC1 (stereo not drawn) |  | > 100 µM
42 | O=c1cc(CNC2CCCC2)[nH]c(=O)[nH]1 |  | > 100 µM
43 | C#CCC[C@@H]1O[C@@]1(C)CC/C=C(\C)CC/C=C/C=O |  | > 100 µM
44 | COc1c2cc([N+](=O)[O-])cc1CNC(=O)CN1CCOCCOCCN(CCOCCOCC1)CC(=O)NC2 |  | > 100 µM
45 | C=CC(=O)Nc1ccc(Nc2nccc(-c3ccc(N4CCCC4)c(C#N)c3)n2)cc1 | 18.8 µM | > 25 µM
46 | CC1=CCC[C@@]2(C)C(CC[C@@H]2C(C)/C=C/C(C)C)c2ccc(cc2C(=O)O)C[C@@H](O)CC1 (stereo partly drawn) |  | 22.7 µM
47 | O=C1c2ccccc2C(=O)N1n1c(Cc2ccccc2)n[nH]c1=O |  | > 100 µM
48 | S=c1sc2c(Cl)ncnc2n1-c1ccccc1 |  | 26.4 µM
49 | CCCC(=O)O |  | 12300 µM
50 | COc1cc(CCc2cccnc2)cc(OC)c1OC |  | > 100 µM
51 | CC1=CC2CC(C)=C(CC[C@]3(C)CC[C@H]([C@@H](C)C(=O)O)OO3)C(C)(C)C2CC1 (stereo partly drawn) |  | 2.88 µM
